# Results taken from PMC4336329 (PLoS ONE, 2015).
# Hit rate of the full screen: of about 310,000 compounds, about 2,200 (0.71%) showed an effect of 50% or more. Effects have a minus sign here. This is one part of the list.
# Target: human ether-à-go-go-related gene (hERG) potassium channel (human, UniProt Q12809)
# Test: primary screen, population patch clamp on CHO cells stably expressing hERG
# Sequence of human ether-à-go-go-related gene (hERG) potassium channel (Q12809 whole entry, looked up): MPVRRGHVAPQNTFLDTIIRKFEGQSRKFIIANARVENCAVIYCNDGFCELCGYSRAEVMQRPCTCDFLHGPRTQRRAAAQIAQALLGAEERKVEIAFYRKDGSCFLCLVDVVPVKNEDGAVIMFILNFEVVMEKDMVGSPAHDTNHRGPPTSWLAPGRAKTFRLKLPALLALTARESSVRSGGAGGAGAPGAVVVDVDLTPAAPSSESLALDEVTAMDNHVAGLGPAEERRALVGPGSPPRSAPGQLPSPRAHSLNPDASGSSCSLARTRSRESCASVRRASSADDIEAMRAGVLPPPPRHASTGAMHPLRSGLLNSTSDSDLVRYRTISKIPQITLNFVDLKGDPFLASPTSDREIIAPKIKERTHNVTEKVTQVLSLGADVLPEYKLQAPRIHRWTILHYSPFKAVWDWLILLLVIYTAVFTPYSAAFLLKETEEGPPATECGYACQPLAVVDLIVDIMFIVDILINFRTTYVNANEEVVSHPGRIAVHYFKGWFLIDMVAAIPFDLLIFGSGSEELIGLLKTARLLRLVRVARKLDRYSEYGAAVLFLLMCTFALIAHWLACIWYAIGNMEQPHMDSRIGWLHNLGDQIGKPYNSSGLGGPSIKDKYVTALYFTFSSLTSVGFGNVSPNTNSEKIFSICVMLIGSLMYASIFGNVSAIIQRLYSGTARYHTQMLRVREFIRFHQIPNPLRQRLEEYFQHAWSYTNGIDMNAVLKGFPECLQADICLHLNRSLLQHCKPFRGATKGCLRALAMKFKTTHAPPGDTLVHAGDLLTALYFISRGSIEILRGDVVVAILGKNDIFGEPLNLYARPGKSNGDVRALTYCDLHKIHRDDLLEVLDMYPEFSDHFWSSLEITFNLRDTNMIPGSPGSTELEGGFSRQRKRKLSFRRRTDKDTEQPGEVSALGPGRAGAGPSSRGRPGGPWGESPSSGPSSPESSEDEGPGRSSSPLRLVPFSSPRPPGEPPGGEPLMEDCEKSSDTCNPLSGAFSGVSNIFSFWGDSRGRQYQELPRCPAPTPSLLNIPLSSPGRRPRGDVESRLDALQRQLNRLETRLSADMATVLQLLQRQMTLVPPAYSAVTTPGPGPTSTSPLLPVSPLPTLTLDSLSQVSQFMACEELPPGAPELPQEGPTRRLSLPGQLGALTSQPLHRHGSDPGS
row,Structure (SMILES),"hERG current change (%, negative = inhibition) at 1uM [%]"
1,O=C(CSc1nnc(COc2ccccc2F)n1-c1ccccc1)NC1CCS(=O)(=O)C1 (stereo not drawn),12.2
2,COc1ccc(NC(=O)COc2cccc3c2CCN(Cc2cccnc2)C3=O)cc1,-6.83
3,COc1ccc(C(=O)n2cc(C(=O)c3cc(C)ccc3O)cn2)cc1,4.48
4,O=C(N1CCOCC1)N1c2ccccc2Sc2ccccc21,3.55
5,COC(=O)C1CCN(C(=O)Cc2ccc(C)cc2)CC1,10.2
6,S=c1[nH]nc(-c2ccc3ccccc3n2)n1-c1ccc(Cl)cc1,7.07
7,CCOc1ccc(-n2c(C)c(C(C)=O)c(C(C)=O)c2C)cc1,2.39
8,Cc1cc(C)cc(NC(=S)NCc2ccc(S(N)(=O)=O)cc2)c1,13.4
9,CC1CCN(S(=O)(=O)c2cc(Cl)ccc2Br)CC1,6.28
10,Cc1cccc(C)c1OP(N)(=O)OCC(F)(F)F (stereo not drawn),3.53
11,O=C(CNC(=O)c1ccccc1)N/N=C/c1cccs1,1.92
12,O=S(=O)(NCCc1ccncc1)c1ccc(F)cc1,13.6
13,O=c1[nH]c(N2CCc3ccccc32)nc2c1CCCC2,2.53
14,CC(=O)c1c(C)oc2c1C(=O)c1ccccc1C2=O,4.13
15,COc1ccc(-c2noc(-c3ccoc3C)n2)cc1,13.1
16,COC(=O)C1=C(C)NC2=C(C(=O)CC(C)(C)C2)C1c1cn(Cc2ccc(Br)cc2)nc1-c1ccccc1 (stereo not drawn),-11
17,CN1CCN(C2Cc3ccc(F)cc3Sc3cc(F)c(Cl)cc32)CC1.CS(=O)(=O)O.O (stereo not drawn),-15.5
18,CCc1nnc(NC(=O)c2cc(Cl)ccn2)s1,8.93
19,COc1ccc(C2C(C(=O)N3CCCCC3)CC(=O)N2c2ccc(OC)cc2)cc1 (stereo not drawn),-10.5

row,Structure (SMILES),"hERG current change (%, negative = inhibition) at 1uM [%]"
1,CCc1cccc(C)c1NC(=O)c1ccc2c(c1)CCN2S(C)(=O)=O,6.45
2,COc1cc(NC(=S)N2CCN(S(=O)(=O)c3ccc(F)cc3)CC2)cc(OC)c1,17.7
3,O=C(CSc1ncnc2ccccc12)NCC(=O)c1ccccc1,4.86
4,Cc1ccc(C(=O)/C=C/Nc2ccccn2)cc1,-6.06
5,Cn1ncc2c(c(SCc3ccc(Cl)cc3Cl)nn2C)c1=O,14.1
6,COc1ccc(-c2cc(C(=O)N3CCCCCC3)no2)cc1,12.9
7,C=COCCn1c(-c2nonc2N)nc2ccccc21,9.71
8,COc1ccc(S(=O)(=O)N(CC(=O)N2CCCC2)Cc2ccccc2)cc1,-11.6
9,O=C(N/N=C/c1cc(Br)c(Br)o1)C(O)c1ccccc1 (stereo not drawn),3.32
10,Cc1ccc(C(=O)c2c3ccc(C(F)(F)F)cc3[n+]([O-])n2CCCC(N)=O)cc1,-39
11,COc1ccc(-c2noc(CCC(=O)NCCCN3CCN(c4ccc(F)cc4)CC3)n2)cc1,-30.1
12,CCC1(CC)NC(=O)N(CC(=O)N2N=C(c3ccc(Cl)cc3)CC2c2ccco2)C1=O (stereo not drawn),1.55
13,O=C(Cn1cnnn1)Nc1cccc([N+](=O)[O-])c1,7.12
14,CCc1ccc(NCc2nc(-c3ccccc3)no2)cc1,10.4
15,O=C(CN1C(=O)C2CCCCC2C1=O)Nc1nc(-c2ccc(F)cc2)cs1 (stereo not drawn),10.8
16,CC(=O)c1sc(NC(=O)CCCOc2ccccc2C)nc1C,18.8
17,Cc1nc(CSc2nnc3scc(-c4ccc(Cl)cc4)n23)cs1,2.22
18,CS(=O)(=O)N(CC(=O)N1CCN(c2cccc(Cl)c2)CC1)c1ccccc1,7.53
19,CCNc1ccc(C(=O)OCC)cc1NC(=O)c1cccc(S(=O)(=O)N2CCOCC2)c1,10.8

row,Structure (SMILES),"hERG current change (%, negative = inhibition) at 1uM [%]"
1,O=C(CSc1ccccc1C(=O)O)NC12CC3CC(CC(C3)C1)C2,16.2
2,CC(C)Oc1ccc(CNC(=O)Cn2c(=O)c3cccn3c3cccnc32)cc1,6.17
3,COc1cc(Cl)c(C)cc1NC(=O)c1ccc2c(c1)OCO2,15.4
4,COc1ccc(Cn2cnc3c([N+](=O)[O-])c(C)c(C)cc32)cc1,4.42
5,CCOC(=O)c1[nH]c2ccccc2c1NC(=S)Nc1cccc(C)c1,4.71
6,COc1ccc2c(c1)CC1(CN2C)C(=O)NC(=O)N(CCc2ccccc2)C1=O (stereo not drawn),-6.39
7,O=C(COc1ccccc1)N1c2ccccc2Sc2ccccc21,9.48
8,CCOC(=O)[C@H]1[C@H]2COc3cc(OC)ccc3[C@@H]2N2C(=O)c3ccc(F)cc3NC(=O)[C@@]12C,13.1
9,CN1CCCN(C(=O)c2ccc(Cl)cc2)CC1,11.7
10,Cc1ccc(-c2csc3ncnc(Sc4nnc(CN5CCCCCC5=O)o4)c23)cc1,-2.37
11,CCN(c1ccccc1)S(=O)(=O)c1ccc(C(=O)NCCc2ccc(S(N)(=O)=O)cc2)cc1,15.4
12,O=C(CCS(=O)(=O)c1ccc(F)cc1)N1CCN(c2ccccc2)CC1,4.65
13,CCCNc1cc(C)c(C#N)c2nc3ccccc3n12,13.9
14,CCOc1ccccc1NC(=O)C1CCN(c2ccc(S(=O)(=O)N3CCCC3)cc2)CC1,-4.79
15,COc1cc(C2N(C)C(=O)c3ccccc3N2C)ccc1O (stereo not drawn),15.9
16,COc1ccc2nc(/C=N/NC(=O)CCNC(=O)OC(C)(C)C)ccc2c1,-0.945
17,N=C1S/C(=C\c2ccc(O)cc2)C(=O)N1c1ccc(F)cc1,5.7
18,CCOc1nc(-c2ccccc2)ccc1-c1noc(-c2cccs2)n1,3.81
19,CCn1c(C)nc2cc(S(=O)(=O)C(F)(F)C(F)C(F)(F)F)ccc21 (stereo not drawn),12.8
